Reference: patent US9340590B2 (priority 2011, dated 2016)
pIC50: −log10 of the molar value. Where two headings read alike, the source gives them in different places. At least one compound was matched to its structure with a doubt left.

Columns and labels:
Type in all cases: cell-based
hNav1.7 [1] = biological target: T1, hNav1.7 (Homo sapiens, UniProt Q15858); details: IonWorks Quattro, read-out: IWQ Use Nav1.7
hNav1.4 = hNav1.4 (Homo sapiens, UniProt P35499); details: IonWorks Quattro, read-out: IWQ Use Nav1.4
hNav1.3 = hNav1.3 (Homo sapiens, UniProt Q9NY46); details: IonWorks Quattro, read-out: IWQ Use Nav1.3
hNav1.5 = hNav1.5 (Homo sapiens, UniProt Q14524); details: IonWorks Quattro, read-out: IWQ Use Nav1.5
hNav1.7 [2] = biological target: T1, hNav1.7; details: read-out: Nav1.7 Use IC50
[3] = use-dependent protocol, hNav1.7
[4] = use-dependent protocol, hNav1.4
[5] = use-dependent protocol, hNav1.3
[6] = use-dependent protocol, hNav1.5

hNav1.3, sequence (Q9NY46 whole entry, looked up): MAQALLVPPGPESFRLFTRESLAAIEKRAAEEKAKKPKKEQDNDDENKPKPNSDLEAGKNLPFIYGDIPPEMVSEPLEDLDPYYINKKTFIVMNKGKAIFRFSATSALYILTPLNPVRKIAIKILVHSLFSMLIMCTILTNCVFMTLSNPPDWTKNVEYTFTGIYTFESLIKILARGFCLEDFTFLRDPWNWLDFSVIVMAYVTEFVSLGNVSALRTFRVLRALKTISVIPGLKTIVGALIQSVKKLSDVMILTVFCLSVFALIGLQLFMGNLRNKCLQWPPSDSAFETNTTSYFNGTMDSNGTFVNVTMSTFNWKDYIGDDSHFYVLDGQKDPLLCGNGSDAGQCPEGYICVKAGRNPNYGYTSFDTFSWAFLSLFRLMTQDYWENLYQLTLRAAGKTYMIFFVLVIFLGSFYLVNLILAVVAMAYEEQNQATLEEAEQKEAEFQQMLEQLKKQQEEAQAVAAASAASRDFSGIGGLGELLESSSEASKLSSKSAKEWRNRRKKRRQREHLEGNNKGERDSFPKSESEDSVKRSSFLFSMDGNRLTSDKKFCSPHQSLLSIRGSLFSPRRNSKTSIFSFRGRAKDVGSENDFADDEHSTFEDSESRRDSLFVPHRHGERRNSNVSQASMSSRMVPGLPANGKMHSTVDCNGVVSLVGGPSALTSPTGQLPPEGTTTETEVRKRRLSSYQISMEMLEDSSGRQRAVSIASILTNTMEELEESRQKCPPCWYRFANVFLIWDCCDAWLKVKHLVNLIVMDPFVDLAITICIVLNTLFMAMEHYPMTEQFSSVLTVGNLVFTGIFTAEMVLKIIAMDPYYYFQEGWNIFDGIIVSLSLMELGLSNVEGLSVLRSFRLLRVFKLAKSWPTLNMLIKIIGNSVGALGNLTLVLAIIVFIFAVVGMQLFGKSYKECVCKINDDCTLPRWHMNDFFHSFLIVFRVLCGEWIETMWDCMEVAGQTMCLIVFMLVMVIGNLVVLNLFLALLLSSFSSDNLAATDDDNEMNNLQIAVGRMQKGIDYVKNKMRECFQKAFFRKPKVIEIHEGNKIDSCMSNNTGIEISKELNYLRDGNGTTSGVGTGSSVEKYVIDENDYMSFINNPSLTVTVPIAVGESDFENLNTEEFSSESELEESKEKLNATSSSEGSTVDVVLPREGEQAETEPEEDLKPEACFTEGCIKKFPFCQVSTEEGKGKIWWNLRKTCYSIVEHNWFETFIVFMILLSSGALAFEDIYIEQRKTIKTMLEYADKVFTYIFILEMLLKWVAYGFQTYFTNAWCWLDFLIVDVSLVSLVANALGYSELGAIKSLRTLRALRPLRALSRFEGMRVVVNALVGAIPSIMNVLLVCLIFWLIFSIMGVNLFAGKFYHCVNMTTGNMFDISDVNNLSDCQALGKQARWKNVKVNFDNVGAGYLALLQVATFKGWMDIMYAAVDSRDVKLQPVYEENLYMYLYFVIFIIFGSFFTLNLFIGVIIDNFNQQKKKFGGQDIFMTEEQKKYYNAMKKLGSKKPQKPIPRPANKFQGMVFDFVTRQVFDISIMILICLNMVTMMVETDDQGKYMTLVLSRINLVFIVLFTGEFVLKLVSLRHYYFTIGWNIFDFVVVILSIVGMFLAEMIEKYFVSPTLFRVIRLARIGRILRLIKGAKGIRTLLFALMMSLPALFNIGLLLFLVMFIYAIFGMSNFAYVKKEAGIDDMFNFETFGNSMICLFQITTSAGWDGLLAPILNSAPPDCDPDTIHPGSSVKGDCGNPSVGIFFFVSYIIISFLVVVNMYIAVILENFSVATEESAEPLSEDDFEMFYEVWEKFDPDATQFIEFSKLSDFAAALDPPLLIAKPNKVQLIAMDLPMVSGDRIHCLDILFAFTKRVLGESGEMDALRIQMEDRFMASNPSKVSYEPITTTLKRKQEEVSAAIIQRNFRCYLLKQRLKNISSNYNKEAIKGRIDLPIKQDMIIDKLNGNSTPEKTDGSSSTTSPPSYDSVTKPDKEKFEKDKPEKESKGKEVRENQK
hNav1.4, sequence (P35499 whole entry, looked up): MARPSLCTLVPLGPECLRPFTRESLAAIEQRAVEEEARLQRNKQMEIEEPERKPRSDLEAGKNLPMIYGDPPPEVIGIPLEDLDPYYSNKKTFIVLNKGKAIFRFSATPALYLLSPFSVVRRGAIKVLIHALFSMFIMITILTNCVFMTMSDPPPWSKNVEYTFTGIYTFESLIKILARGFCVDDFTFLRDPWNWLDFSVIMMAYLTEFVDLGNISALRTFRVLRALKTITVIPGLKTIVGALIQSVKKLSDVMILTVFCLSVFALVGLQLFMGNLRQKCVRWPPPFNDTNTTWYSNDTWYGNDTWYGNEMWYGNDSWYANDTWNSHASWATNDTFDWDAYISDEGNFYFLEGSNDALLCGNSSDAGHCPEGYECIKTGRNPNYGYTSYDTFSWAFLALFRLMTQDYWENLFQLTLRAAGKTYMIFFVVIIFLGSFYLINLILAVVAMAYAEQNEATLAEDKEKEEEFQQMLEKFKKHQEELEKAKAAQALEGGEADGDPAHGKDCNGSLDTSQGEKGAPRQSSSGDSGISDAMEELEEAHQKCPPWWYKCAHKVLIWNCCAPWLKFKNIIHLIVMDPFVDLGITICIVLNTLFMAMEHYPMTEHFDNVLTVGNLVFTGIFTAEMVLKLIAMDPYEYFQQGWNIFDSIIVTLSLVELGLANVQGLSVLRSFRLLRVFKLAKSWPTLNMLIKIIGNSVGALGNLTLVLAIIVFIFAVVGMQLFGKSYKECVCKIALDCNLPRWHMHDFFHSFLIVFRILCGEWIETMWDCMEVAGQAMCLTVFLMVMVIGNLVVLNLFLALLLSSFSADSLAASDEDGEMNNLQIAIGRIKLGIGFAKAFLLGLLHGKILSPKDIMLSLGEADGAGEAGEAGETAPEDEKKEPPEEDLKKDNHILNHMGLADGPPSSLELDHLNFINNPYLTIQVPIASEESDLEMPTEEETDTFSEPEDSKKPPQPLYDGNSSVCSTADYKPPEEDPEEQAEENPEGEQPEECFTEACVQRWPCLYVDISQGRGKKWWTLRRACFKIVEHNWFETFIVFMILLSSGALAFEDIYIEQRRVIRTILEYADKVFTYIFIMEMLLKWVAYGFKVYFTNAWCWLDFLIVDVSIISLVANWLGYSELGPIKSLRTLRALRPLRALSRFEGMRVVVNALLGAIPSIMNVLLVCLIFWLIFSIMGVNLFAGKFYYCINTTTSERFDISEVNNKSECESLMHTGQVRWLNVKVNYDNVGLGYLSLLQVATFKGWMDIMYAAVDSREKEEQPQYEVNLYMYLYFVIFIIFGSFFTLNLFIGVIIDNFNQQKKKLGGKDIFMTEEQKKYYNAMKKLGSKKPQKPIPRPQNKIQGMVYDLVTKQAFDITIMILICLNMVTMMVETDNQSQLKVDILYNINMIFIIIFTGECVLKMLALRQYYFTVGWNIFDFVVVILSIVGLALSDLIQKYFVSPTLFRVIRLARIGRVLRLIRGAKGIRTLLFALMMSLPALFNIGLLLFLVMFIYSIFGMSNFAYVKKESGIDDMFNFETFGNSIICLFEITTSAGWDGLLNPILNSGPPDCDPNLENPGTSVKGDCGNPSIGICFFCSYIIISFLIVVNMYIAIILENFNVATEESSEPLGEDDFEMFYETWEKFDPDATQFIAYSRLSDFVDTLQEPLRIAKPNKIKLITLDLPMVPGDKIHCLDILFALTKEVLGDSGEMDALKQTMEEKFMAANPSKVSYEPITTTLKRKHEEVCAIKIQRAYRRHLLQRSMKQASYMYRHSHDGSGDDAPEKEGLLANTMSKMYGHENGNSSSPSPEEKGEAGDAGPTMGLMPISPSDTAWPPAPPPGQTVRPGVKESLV

| SMILES | pIC50 (hNav1.7 [1]; use-dependent block) | pIC50 (hNav1.4; use-dependent block) | pIC50 (hNav1.3; use-dependent block) | pIC50 (hNav1.5; use-dependent block) | pIC50 (hNav1.7 [1]; [3]) | pIC50 (hNav1.4; [4]) | pIC50 (hNav1.3; [5]) | pIC50 (hNav1.5; [6]) | pIC50 (hNav1.7 [2]) |
| --- | --- | --- | --- | --- | --- | --- | --- | --- | --- |
| CC[C@H](C)[C@@H]1NC(=O)[C@@H]2CSSC[C@@H]3NC(=O)[C@H](C(C)C)NC(=O)[C@H](CC(C)C)NC(=O)[C@H](CC(N)=O)NC(=O)[C@@H]4CCCN4C(=O)[C@H](CCCNC(=N)N)NC(=O)[C@H](CSSC[C@H](NC(=O)[C@@H](N)CC(=O)O)C(=O)N[C@@H](CC(C)C)C(=O)NCC(=O)N[C@@H](Cc4ccccc4)C(=O)N[C@@H](Cc4ccccc4)C(=O)N[C@@H](CCCNC(=N)N)C(=O)N[C@@H](CCCCN)C(=O)N2)NC(=O)[C@H](CSSC[C@@H](C(=O)N[C@@H](CCCCN)C(=O)N[C@@H](Cc2ccc(O)cc2)C(=O)N[C@H](C(=O)N[C@@H](Cc2ccccc2)C(=O)N[C@@H](Cc2cn(CCOCCOCCOCCOCCOCCOCCOCCOCCOCCOCCN)nn2)C(N)=O)C(C)C)NC(=O)[C@H](Cc2c[nH]c4ccccc24)NC(=O)[C@H](CCCCN)NC(=O)[C@H](Cc2c[nH]cn2)NC(=O)[C@H](CC(C)C)NC(=O)[C@H](CCCNC(=N)N)NC(=O)[C@H](CO)NC3=O)NC(=O)[C@H](CCCCN)NC(=O)[C@H](CC(=O)O)NC(=O)[C@H](CC(N)=O)NC(=O)[C@H](CC(=O)O)NC(=O)[C@@H]2CCCN2C1=O [compound 588] | 6.37 | < 5.30 | 6.89 | < 5.30 | – | – | – | – | – |
| CC[C@H](C)[C@@H]1NC(=O)[C@@H]2CSSC[C@@H]3NC(=O)[C@H](C(C)C)NC(=O)[C@H](CC(C)C)NC(=O)[C@H](CC(N)=O)NC(=O)[C@@H]4CCCN4C(=O)[C@H](CCCNC(=N)N)NC(=O)[C@H](CSSC[C@H](NC(=O)[C@@H](N)CC(=O)O)C(=O)N[C@@H](CC(C)C)C(=O)NCC(=O)N[C@@H](Cc4ccc(OC)c(OC)c4)C(=O)N[C@@H](CCSC)C(=O)N[C@@H](CCCNC(=N)N)C(=O)N[C@@H](CCCCN)C(=O)N2)NC(=O)[C@H](CSSC[C@@H](C(=O)N[C@@H](CCCCN)C(=O)N[C@@H](Cc2ccc(O)cc2)C(=O)N[C@H](C(=O)N[C@@H](Cc2ccccc2)C(N)=O)C(C)C)NC(=O)[C@H](Cc2c[nH]c4ccccc24)NC(=O)[C@H](CCCCN)NC(=O)[C@H](Cc2c[nH]cn2)NC(=O)[C@H]([C@@H](C)O)NC(=O)[C@H](CCCNC(=N)N)NC(=O)[C@H](CO)NC3=O)NC(=O)[C@H](CCCCN)NC(=O)[C@H](CC(=O)O)NC(=O)[C@H](CC(N)=O)NC(=O)[C@H](CC(=O)O)NC(=O)[C@@H]2CCCN2C1=O [compound 652] | – | – | – | – | 5.54 | < 5.30 | 5.44 | < 5.30 | – |
| CC[C@H](C)[C@@H]1NC(=O)[C@@H]2CSSC[C@@H]3NC(=O)[C@H](C(C)C)NC(=O)[C@H](CC(C)C)NC(=O)[C@H](CC(N)=O)NC(=O)[C@@H]4CCCN4C(=O)[C@H](CCCNC(=N)N)NC(=O)[C@H](CSSC[C@H](NC(=O)[C@@H](N)CC(=O)O)C(=O)N[C@@H](CC(C)C)C(=O)NCC(=O)N[C@@H](Cc4ccccc4)C(=O)N[C@@H](Cc4ccccc4)C(=O)N[C@@H](CCCNC(=N)N)C(=O)N[C@@H](CCCCN)C(=O)N2)NC(=O)[C@H](CSSC[C@@H](C(=O)N[C@@H](CCCCN)C(=O)N[C@@H](Cc2cn(CCOCCOCCOCCOCCOCCOCCOCCOCCOCCOCCN)nn2)C(=O)N[C@H](C(=O)N[C@@H](Cc2cccc4ccccc24)C(N)=O)C(C)C)NC(=O)[C@H](Cc2c[nH]c4ccccc24)NC(=O)[C@H](CCCCN)NC(=O)[C@H](Cc2c[nH]cn2)NC(=O)[C@H]([C@@H](C)O)NC(=O)[C@H](CCCNC(=N)N)NC(=O)[C@H](CO)NC3=O)NC(=O)[C@H](CCCCN)NC(=O)[C@H](CC(=O)O)NC(=O)[C@H](CC(N)=O)NC(=O)[C@H](CC(=O)O)NC(=O)[C@@H]2CCCN2C1=O [compound 559] | ≤ 5.30 | < 5.30 | 5.66 | < 5.30 | – | – | – | – | – |
| CC[C@H](C)[C@@H]1NC(=O)[C@@H]2CSSC[C@@H]3NC(=O)[C@H](C(C)C)NC(=O)[C@H](CC(C)C)NC(=O)[C@H](CC(N)=O)NC(=O)[C@@H]4CCCN4C(=O)[C@H](CCCNC(=N)N)NC(=O)[C@H](CSSC[C@H](NC(=O)[C@H](CC(=O)O)NC(=O)[C@@H](N)Cc4cn(CCOCCOCCOCCOCCOCCOCCOCCOCCOCCOCCN)nn4)C(=O)N[C@@H](CC(C)C)C(=O)NCC(=O)N[C@@H](Cc4ccccc4)C(=O)N[C@@H](Cc4ccccc4)C(=O)N[C@@H](CCCNC(=N)N)C(=O)N[C@@H](CCCCN)C(=O)N2)NC(=O)[C@H](CSSC[C@@H](C(=O)N[C@@H](CCCCN)C(=O)N[C@@H](Cc2ccc(O)cc2)C(=O)N[C@H](C(=O)N[C@@H](Cc2cccc4ccccc24)C(N)=O)C(C)C)NC(=O)[C@H](Cc2c[nH]c4ccccc24)NC(=O)[C@H](CCCCN)NC(=O)[C@H](Cc2c[nH]cn2)NC(=O)[C@H]([C@@H](C)O)NC(=O)[C@H](CCCNC(=N)N)NC(=O)[C@H](CO)NC3=O)NC(=O)[C@H](CCCCN)NC(=O)[C@H](CC(=O)O)NC(=O)[C@H](CC(N)=O)NC(=O)[C@H](CC(=O)O)NC(=O)[C@@H]2CCCN2C1=O [compound 550] | 7.54 | 6.82 | 8.40 | 5.17 | – | – | – | – | – |
| CC[C@H](C)[C@@H]1NC(=O)[C@@H]2CSSC[C@@H]3NC(=O)[C@H](C(C)C)NC(=O)[C@H](CC(C)C)NC(=O)[C@H](CC(N)=O)NC(=O)[C@@H]4CCCN4C(=O)[C@H](CCCNC(=N)N)NC(=O)[C@H](CSSC[C@H](NC(=O)[C@@H](N)CC(=O)O)C(=O)N[C@@H](CC(C)C)C(=O)NCC(=O)N[C@@H](Cc4ccc(C(F)(F)F)cc4)C(=O)N[C@@H](CCSC)C(=O)N[C@@H](CCCNC(=N)N)C(=O)N[C@@H](CCCCN)C(=O)N2)NC(=O)[C@H](CSSC[C@@H](C(=O)N[C@@H](CCCCN)C(=O)N[C@@H](Cc2ccc(O)cc2)C(=O)N[C@H](C(=O)N[C@@H](Cc2ccccc2)C(N)=O)C(C)C)NC(=O)[C@H](Cc2c[nH]c4ccccc24)NC(=O)[C@H](CCCCN)NC(=O)[C@H](Cc2c[nH]cn2)NC(=O)[C@H]([C@@H](C)O)NC(=O)[C@H](CCCNC(=N)N)NC(=O)[C@H](CO)NC3=O)NC(=O)[C@H](CCCCN)NC(=O)[C@H](CC(=O)O)NC(=O)[C@H](CC(N)=O)NC(=O)[C@H](CC(=O)O)NC(=O)[C@@H]2CCCN2C1=O [compound 654] | – | – | – | – | 6.49 | 5.89 | 7.14 | < 5.30 | – |
| CC(C)C[C@@H]1NC(=O)[C@@H](NC(=O)[C@@H](N)CC(=O)O)CSSC[C@@H]2NC(=O)[C@@H]3CSSC[C@@H](C(=O)N[C@@H](CCCCN)C(=O)N[C@@H](Cc4ccc(O)cc4)C(=O)N[C@H](C(=O)N[C@@H](Cc4cccc5ccccc45)C(N)=O)C(C)C)NC(=O)[C@H](Cc4c[nH]c5ccccc45)NC(=O)[C@H](CCCCN)NC(=O)[C@H](Cc4c[nH]cn4)NC(=O)[C@H]([C@@H](C)O)NC(=O)[C@H](CCCNC(=N)N)NC(=O)[C@H](CO)NC(=O)[C@H](CSSC[C@H](NC(=O)[C@H](CCCCN)NC(=O)[C@H](CCCNC(=N)N)NC(=O)[C@H](Cc4ccccc4)NC(=O)[C@H](Cc4ccccc4)NC(=O)CNC1=O)C(=O)N[C@@H](Cc1cn(CCOCCOCCOCCOCCOCCOCCOCCOCCOCCOCCN)nn1)C(=O)N1CCC[C@H]1C(=O)N[C@@H](CC(=O)O)C(=O)N[C@@H](CC(N)=O)C(=O)N[C@@H](CC(=O)O)C(=O)N[C@@H](CCCCN)C(=O)N3)NC(=O)[C@H](C(C)C)NC(=O)[C@H](CC(C)C)NC(=O)[C@H](CC(N)=O)NC(=O)[C@@H]1CCCN1C(=O)[C@H](CCCNC(=N)N)NC2=O [compound 554] | 7.24 | 6.85 | 7.82 | 5.06 | – | – | – | – | – |
| CC[C@H](C)[C@@H]1NC(=O)[C@@H]2CSSC[C@@H]3NC(=O)[C@H](C(C)C)NC(=O)[C@H](CC(C)C)NC(=O)[C@H](CC(N)=O)NC(=O)[C@@H]4CCCN4C(=O)[C@H](CCCNC(=N)N)NC(=O)[C@H](CSSC[C@H](NC(=O)[C@@H](N)CC(=O)O)C(=O)N[C@@H](CC(C)C)C(=O)NCC(=O)N[C@@H](C)C(=O)N[C@@H](Cc4ccccc4)C(=O)N[C@@H](CCCNC(=N)N)C(=O)N[C@@H](CCCCN)C(=O)N2)NC(=O)[C@H](CSSC[C@@H](C(=O)N[C@@H](CCCCN)C(=O)N[C@@H](Cc2ccc(O)cc2)C(=O)N[C@H](C(=O)N[C@@H](Cc2ccccc2)C(N)=O)C(C)C)NC(=O)[C@H](Cc2c[nH]c4ccccc24)NC(=O)[C@H](CCCCN)NC(=O)[C@H](Cc2c[nH]cn2)NC(=O)[C@H]([C@@H](C)O)NC(=O)[C@H](CCCNC(=N)N)NC(=O)[C@H](CO)NC3=O)NC(=O)[C@H](CCCCN)NC(=O)[C@H](CC(=O)O)NC(=O)[C@H](Cc2cn(CCOCCOCCOCCOCCOCCOCCOCCOCCOCCOCCN)nn2)NC(=O)[C@H](CC(=O)O)NC(=O)[C@@H]2CCCN2C1=O [compound 520] | 6.57 | – | 6.96 | < 5.30 | – | – | – | – | 7.03 |
| CC[C@H](C)[C@@H]1NC(=O)[C@@H]2CSSC[C@@H]3NC(=O)[C@H](C(C)C)NC(=O)[C@H](CC(C)C)NC(=O)[C@H](CC(N)=O)NC(=O)[C@@H]4CCCN4C(=O)[C@H](CCCNC(=N)N)NC(=O)[C@H](CSSC[C@H](NC(=O)[C@@H](N)CC(=O)O)C(=O)N[C@@H](CC(C)C)C(=O)NCC(=O)N[C@@H](Cc4ccccc4)C(=O)N[C@@H](Cc4ccccc4)C(=O)N[C@@H](CCCNC(=N)N)C(=O)N[C@@H](CCCCN)C(=O)N2)NC(=O)[C@H](CSSC[C@@H](C(=O)N[C@@H](CCCCN)C(=O)N[C@@H](Cc2ccc(O)cc2)C(=O)N[C@@H](Cc2cn(CCOCCOCCOCCOCCOCCOCCOCCOCCOCCOCCN)nn2)C(=O)N[C@@H](Cc2cccc4ccccc24)C(N)=O)NC(=O)[C@H](Cc2c[nH]c4ccccc24)NC(=O)[C@H](CCCCN)NC(=O)[C@H](Cc2c[nH]cn2)NC(=O)[C@H]([C@@H](C)O)NC(=O)[C@H](CCCNC(=N)N)NC(=O)[C@H](CO)NC3=O)NC(=O)[C@H](CCCCN)NC(=O)[C@H](CC(=O)O)NC(=O)[C@H](CC(N)=O)NC(=O)[C@H](CC(=O)O)NC(=O)[C@@H]2CCCN2C1=O [compound 522] | 7.49 | – | 7.85 | < 5.30 | – | – | – | – | 8.52 |
